{"source": "paper PMC4336329", "about": "(PLoS ONE, 2015)", "note": "The campaign covered roughly 310,000 compounds. About 2,200 (0.71%) showed an effect of 50% or more. Effects have a minus sign here. Some of the results follow.", "data": [{"biological_target": "human ether-à-go-go-related gene (hERG) potassium channel (human, UniProt Q12809)", "sequence (Q12809 whole entry, looked up)": "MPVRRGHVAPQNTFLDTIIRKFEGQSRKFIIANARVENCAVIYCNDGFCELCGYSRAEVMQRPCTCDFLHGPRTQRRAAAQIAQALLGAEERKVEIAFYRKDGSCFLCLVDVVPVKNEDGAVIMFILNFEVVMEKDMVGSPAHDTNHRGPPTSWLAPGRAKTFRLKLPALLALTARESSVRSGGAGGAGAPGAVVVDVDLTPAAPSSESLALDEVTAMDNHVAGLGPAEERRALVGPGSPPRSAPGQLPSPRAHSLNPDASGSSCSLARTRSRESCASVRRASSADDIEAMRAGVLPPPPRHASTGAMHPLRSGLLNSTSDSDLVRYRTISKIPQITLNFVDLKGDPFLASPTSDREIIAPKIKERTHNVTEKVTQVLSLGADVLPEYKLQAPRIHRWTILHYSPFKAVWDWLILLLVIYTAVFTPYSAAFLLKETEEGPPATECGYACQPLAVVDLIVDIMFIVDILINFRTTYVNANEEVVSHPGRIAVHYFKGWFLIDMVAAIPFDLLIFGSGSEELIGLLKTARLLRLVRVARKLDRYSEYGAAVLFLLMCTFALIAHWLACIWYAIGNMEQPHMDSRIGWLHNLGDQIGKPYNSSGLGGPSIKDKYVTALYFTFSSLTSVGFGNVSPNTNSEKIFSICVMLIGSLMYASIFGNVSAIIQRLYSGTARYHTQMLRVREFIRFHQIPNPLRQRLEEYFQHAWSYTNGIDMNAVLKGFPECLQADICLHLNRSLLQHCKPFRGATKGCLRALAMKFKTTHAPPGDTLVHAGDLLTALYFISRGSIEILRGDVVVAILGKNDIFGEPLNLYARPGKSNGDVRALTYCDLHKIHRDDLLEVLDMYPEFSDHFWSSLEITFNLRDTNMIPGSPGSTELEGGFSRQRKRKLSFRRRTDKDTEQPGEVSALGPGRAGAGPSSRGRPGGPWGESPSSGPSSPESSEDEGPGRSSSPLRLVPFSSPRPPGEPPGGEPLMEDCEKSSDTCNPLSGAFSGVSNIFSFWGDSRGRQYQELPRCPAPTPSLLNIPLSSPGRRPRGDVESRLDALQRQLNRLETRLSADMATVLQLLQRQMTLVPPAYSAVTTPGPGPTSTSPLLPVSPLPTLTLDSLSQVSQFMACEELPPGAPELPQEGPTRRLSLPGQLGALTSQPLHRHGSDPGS", "assay": "primary screen, population patch clamp on CHO cells stably expressing hERG", "units": {"hERG current change (%, negative = inhibition) at 1uM": "%"}, "values": [{"smiles": "O=C(Nc1ccc(-c2csc(Nc3cccc(C(F)(F)F)c3)n2)cc1)c1cccc(C(F)(F)F)c1", "hERG current change (%, negative = inhibition) at 1uM": 17}, {"smiles": "COc1ccccc1CNC(=O)Cn1nc(C(F)(F)F)cc1C", "hERG current change (%, negative = inhibition) at 1uM": 9.27}, {"smiles": "Brc1cccc(CNc2nc3ccccc3n2CCN2CCCCC2)c1", "hERG current change (%, negative = inhibition) at 1uM": -0.507}, {"smiles": "CC(Oc1ccc2cc(-c3ccccc3)c(=O)oc2c1)C(=O)NCC1CCC(C(=O)O)CC1", "note": "(stereo not shown)", "hERG current change (%, negative = inhibition) at 1uM": 14.2}, {"smiles": "COC(=O)c1sccc1NC(=O)Nc1ccccc1C", "hERG current change (%, negative = inhibition) at 1uM": 8.72}, {"smiles": "COCn1c(-c2ccccc2)nc2ccccc21", "hERG current change (%, negative = inhibition) at 1uM": 4.18}, {"smiles": "CC(C)=C(NC(=O)c1ccccc1)C(=O)Nc1cccc(C(=O)O)c1", "hERG current change (%, negative = inhibition) at 1uM": 15.5}, {"smiles": "Cc1nc(N)sc1-c1csc(Nc2cccc(O)c2)n1", "hERG current change (%, negative = inhibition) at 1uM": 5.63}, {"smiles": "CCc1nnc(NC(=O)C2CC(=O)N(Cc3ccccc3)C2)s1", "note": "(stereo not shown)", "hERG current change (%, negative = inhibition) at 1uM": 4.87}, {"smiles": "CCOC(=O)/C(C#N)=C/c1cn(CCOc2ccc(OC)cc2)c2ccccc12", "hERG current change (%, negative = inhibition) at 1uM": 3.46}, {"smiles": "O=C(CSc1nc2ccccc2[nH]1)Nc1ccc2[nH]c(=O)[nH]c2c1", "hERG current change (%, negative = inhibition) at 1uM": 8.14}, {"smiles": "CC(=O)N1CCN(c2nc(N)c(C#N)c(CC#N)c2C#N)CC1", "hERG current change (%, negative = inhibition) at 1uM": 1.33}, {"smiles": "COC(=O)C1=C(C)N(C)C(=O)NC1c1cccc2ccccc12", "note": "(stereo not shown)", "hERG current change (%, negative = inhibition) at 1uM": 16.1}, {"smiles": "O=C(O)Cc1cc(C(=O)Nc2ccc(Br)cc2)sc1-c1ccccc1", "hERG current change (%, negative = inhibition) at 1uM": 11.8}, {"smiles": "Cn1c(C(=O)NCCCN2CCN(c3ccccc3F)CC2)cc2c(=O)[nH]c3ccccc3c21", "hERG current change (%, negative = inhibition) at 1uM": 0.27}, {"smiles": "COc1ccccc1NC(=O)CC(c1ccc(OC(C)C)cc1)c1ccccc1OC", "note": "(stereo not shown)", "hERG current change (%, negative = inhibition) at 1uM": 2.65}, {"smiles": "C=CCNC(=O)C1CC(=O)N(c2ccc(OCC(=O)NCc3ccccc3)cc2)C1", "note": "(stereo not shown)", "hERG current change (%, negative = inhibition) at 1uM": 0.925}, {"smiles": "COc1ccc(NC(=O)c2ccc(NCCN3C(=O)CCC3=O)c([N+](=O)[O-])c2)cc1", "hERG current change (%, negative = inhibition) at 1uM": 10}, {"smiles": "Cc1cccc(NC(=S)NCC23C=CC(O2)C2C(=O)N(c4ccc(Cl)cc4)C(=O)C23)c1", "note": "(stereo not shown)", "hERG current change (%, negative = inhibition) at 1uM": 13.7}, {"smiles": "CCn1cc([N+](=O)[O-])c(C(=O)N2N=C(c3ccc(O)c(OC)c3)CC2c2ccccc2O)n1", "note": "(stereo not shown)", "hERG current change (%, negative = inhibition) at 1uM": 18.1}, {"smiles": "Cc1cc([N+](=O)[O-])ccc1-c1ccc(C2Nc3ccccc3C(=O)N2O)o1", "note": "(stereo not shown)", "hERG current change (%, negative = inhibition) at 1uM": 1.56}, {"smiles": "Cc1ccccc1CN1CCN(Cc2ccc3cccc(F)c3n2)CC1CCO", "note": "(stereo not shown)", "hERG current change (%, negative = inhibition) at 1uM": -0.311}, {"smiles": "COC(=O)c1ccccc1OC(=O)c1cc[n+]([O-])cc1", "hERG current change (%, negative = inhibition) at 1uM": 13.1}, {"smiles": "Cc1nc(SCC(=O)NC2CCCC2)[nH]c(=O)c1Cc1ccccc1", "hERG current change (%, negative = inhibition) at 1uM": 10.5}, {"smiles": "Cn1nc(C(=O)NCCc2ccc(S(N)(=O)=O)cc2)c2ccccc2c1=O", "hERG current change (%, negative = inhibition) at 1uM": 3.53}, {"smiles": "Cc1ccc(NC(=O)CSc2nnc(Cc3cccn3C)n2-c2ccc(F)cc2)cc1", "hERG current change (%, negative = inhibition) at 1uM": 9.87}, {"smiles": "COc1ccc(-c2csc(NC(=O)c3cc(C)on3)c2C#N)cc1OC", "hERG current change (%, negative = inhibition) at 1uM": -1.78}, {"smiles": "CCN(CC)C(=O)c1ccc(NC(=O)COc2ccc([N+](=O)[O-])cc2Cl)cc1", "hERG current change (%, negative = inhibition) at 1uM": -5.1}, {"smiles": "CC(=O)N(Cc1ccccc1)c1ccccc1C(=O)O", "hERG current change (%, negative = inhibition) at 1uM": 15.7}, {"smiles": "CCN(CC)c1cccc(OC(=O)c2cccnc2Cl)c1", "hERG current change (%, negative = inhibition) at 1uM": 14.9}, {"smiles": "O=C1NC2(CCCCC2)C(=O)N1CCS(=O)(=O)Oc1ccc(Br)cc1", "hERG current change (%, negative = inhibition) at 1uM": 3.14}, {"smiles": "O=C(Nc1nnc(CCS(=O)(=O)c2ccc3ccccc3c2)s1)c1ccc([N+](=O)[O-])cc1", "hERG current change (%, negative = inhibition) at 1uM": 15.4}, {"smiles": "O=C1CN(C(=O)CN2CCCC2)C(c2ccccc2)c2cc(Br)ccc2N1", "note": "(stereo not shown)", "hERG current change (%, negative = inhibition) at 1uM": -21.5}, {"smiles": "CC(=O)OCCNC(=O)Cn1cnc2c1c(=O)n(C)c(=O)n2C", "hERG current change (%, negative = inhibition) at 1uM": 4.86}, {"smiles": "O=C(CCCCCNC(=O)c1ccccc1)N/N=C/c1ccccc1", "hERG current change (%, negative = inhibition) at 1uM": 6.67}, {"smiles": "COc1ccccc1NC(=O)c1ccc(NC(=O)CSc2ncccn2)cc1", "hERG current change (%, negative = inhibition) at 1uM": 1.84}, {"smiles": "Cc1ccc2nc(-c3ccc(SCC(=O)N4CCc5ccccc54)nc3)[nH]c2c1", "hERG current change (%, negative = inhibition) at 1uM": 7.85}, {"smiles": "CCCc1nnc(NC(=O)C2CCN(C(=O)c3ccco3)CC2)s1", "hERG current change (%, negative = inhibition) at 1uM": 6.18}, {"smiles": "COc1ccc(CCNC(=O)C2CCN(S(=O)(=O)c3ccc(Cl)cc3)CC2)cc1OC", "hERG current change (%, negative = inhibition) at 1uM": 1.6}, {"smiles": "O=C(NC1CC2CCCC(C1)N2S(=O)(=O)c1ccccc1)C1CCCCC1", "note": "(stereo not shown)", "hERG current change (%, negative = inhibition) at 1uM": 0.641}, {"smiles": "C=CCNC(=S)/N=c1/ccccn1Cc1ccccc1", "hERG current change (%, negative = inhibition) at 1uM": 13.8}, {"smiles": "CCn1c(C)cc(/C=C2/NC(=O)N(Cc3ccccc3F)C2=O)c1C", "hERG current change (%, negative = inhibition) at 1uM": 12.1}, {"smiles": "Cn1c(=O)cc(OCC(=O)N2CCN(c3cccc(C(F)(F)F)c3)CC2)c2ccccc21", "hERG current change (%, negative = inhibition) at 1uM": 6.38}]}]}
